“And” between values parts separate entries of the source, which are not always exact repeats. Equal entries are not always repeated. The whole screen tested about 16,000 compounds, of which about 40 (0.2%) were called active. Inconclusive results (about 1%) are left out. The call rests on the fitted dose curve; in most records, active means well fitted activation curve with a large enough effect; inconclusive means small, poorly fitted or top-dose-only effect, or another doubt; inactive means no such curve, though single readings can be large or run the other way. The list shows a part of the results.
On the % scale 0 is the no-effect control and ±100 the full control effect.

For this assay, the target named is Rap guanine nucleotide exchange factor 4 (Homo sapiens) (UniProt Q8WZA2). In words: Validation qHTS for agonist of cAMP-regulated guanine nucleotide exchange factor 4 (EPAC2).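 Further: exchange makes BODIPY-GDP fluorescence drop when released from Rap1B; series mostly up to about 150 µM.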 The settings on record: EPAC2 Rap1B BODIPY-GDP exchange, fluorescence; activation: stronger effect = higher value. The procedure, abridged: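 Fluorescent exchange assay: 100 nM EPAC2 with 250 nM RAP1B-BODIPY-GDP and 50 uM GDP; compound added, 5 min at room temperature, then read (ex 480/em 540 nm) every 5 min for 30 min. Normalized to 6.5 mM cAMP agonist control.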
UniProt Q8WZA2, sequence (Q8WZA2 whole entry, looked up): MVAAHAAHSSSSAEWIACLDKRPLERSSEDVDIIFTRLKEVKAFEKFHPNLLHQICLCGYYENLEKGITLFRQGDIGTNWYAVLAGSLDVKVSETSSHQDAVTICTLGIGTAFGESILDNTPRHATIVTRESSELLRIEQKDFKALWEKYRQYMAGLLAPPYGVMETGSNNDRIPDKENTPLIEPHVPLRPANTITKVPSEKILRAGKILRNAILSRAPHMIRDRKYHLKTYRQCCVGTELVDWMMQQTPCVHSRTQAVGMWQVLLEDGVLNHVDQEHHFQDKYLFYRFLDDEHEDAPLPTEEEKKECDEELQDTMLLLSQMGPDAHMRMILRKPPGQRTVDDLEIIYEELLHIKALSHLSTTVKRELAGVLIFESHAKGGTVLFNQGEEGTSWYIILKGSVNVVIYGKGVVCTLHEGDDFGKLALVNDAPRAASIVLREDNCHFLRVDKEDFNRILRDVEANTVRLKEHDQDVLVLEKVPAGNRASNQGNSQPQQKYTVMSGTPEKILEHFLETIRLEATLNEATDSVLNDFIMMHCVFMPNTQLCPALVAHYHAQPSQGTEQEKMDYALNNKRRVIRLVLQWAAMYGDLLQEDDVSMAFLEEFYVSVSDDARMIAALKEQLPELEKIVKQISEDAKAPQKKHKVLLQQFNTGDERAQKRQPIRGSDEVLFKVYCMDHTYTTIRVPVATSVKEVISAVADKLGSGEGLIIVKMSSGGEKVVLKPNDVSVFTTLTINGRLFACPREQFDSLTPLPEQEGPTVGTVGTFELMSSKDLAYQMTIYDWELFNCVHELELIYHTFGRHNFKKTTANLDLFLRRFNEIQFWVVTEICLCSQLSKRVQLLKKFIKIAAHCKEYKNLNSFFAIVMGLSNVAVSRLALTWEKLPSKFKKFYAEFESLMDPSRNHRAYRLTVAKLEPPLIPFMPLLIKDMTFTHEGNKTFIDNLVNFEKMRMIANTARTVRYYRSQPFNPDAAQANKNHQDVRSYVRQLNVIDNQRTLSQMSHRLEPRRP
Consider `CCN(CC)c1ccc(N=Nc2ccc(S(=O)(=O)N(C)C)cc2)c(S(=O)(=O)NCC[n+]2ccccc2)c1`, for which the activation was inactive: -34.1%. With `COC(=O)c1ccccc1-c1cc(C)cc2c1OC(CNC(=O)C1CCOC1)C2` (stereo unspecified) the figure was inactive: 2.27%; with `Cc1cc(NC2CCCCC2)nc(-n2nc(C)cc2C)n1`, inactive: -23.5%.

In the case of `NCCSSCCN`, the activation was inactive: 1.32% and inactive: -27.5%.

With `CC(C)CN1CCC(=O)N([C@H](CSc2ccccc2)Cc2ccccc2)CC1`, the activation was inactive: -11.2%.

For `CC(C)NCC(O)c1ccc(O)c(O)c1` (stereo unspecified), the activation is inactive: -16.8% and inactive: 1.61% and inactive: -17%. To `Nc1ccc(O)cc1` belongs inactive: 25.8% and inactive: 23.8%; to `CC1CCC2(OC1)OC1CC3C4CC[C@@H]5CC(O)CC[C@@]5(C)C4CC(=O)[C@]3(C)C1C2C` (stereo partly specified), inactive: 0.518%; to `CC(C)(C)NC(=O)[C@@H]1C[C@@H]2CCCC[C@@H]2CN1C[C@@H](O)[C@H](Cc1ccccc1)NC(=O)[C@H](CC(N)=O)NC(=O)c1ccc2ccccc2n1`, inactive: -37.2%. To `O=C(NCC1Cc2cccc(-c3cncnc3)c2O1)C1CC1` (stereo unspecified) belongs inactive: -13.5%. With `CN1CCN(c2ncnc3ccc(-c4ccccc4C(F)(F)F)cc23)CC1` the figure was inactive: -1.99%; with `C[C@@H]1CCC(=O)N(CC[C@H](Sc2ccccc2)c2ccccc2)CC1`, inactive: -27.3%; with `CCN1CCCC1CNCc1cc2ccc(SC)cc2nc1-c1cc(OC)ccc1OC` (stereo unspecified), inactive: 0.33%. `COc1cc(=O)n2c(c1C(=O)N(C)Cc1cscn1)CCN(C(=O)c1cccc(C)c1C)CC2`: the activation is inactive: -11.8%. To `COc1ccccc1CNc1ccnc(-c2cccc(NS(C)(=O)=O)c2)n1` belongs inactive: -2.38%; to `O=c1cc(-c2ccccc2O)oc2cc(O)ccc12`, inactive: -16.1%. With `CC1OC(n2cc(F)c(=O)[nH]c2=O)C(O)C1O` (stereo unspecified) the figure was inactive: -5.86%; with `CCCCCN(CCCCC)C(=O)C(CCC(=O)O)NC(=O)c1ccc(Cl)c(Cl)c1` (stereo unspecified), inactive: -21.5% and inactive: -23%; with `N#CCCn1c(=O)c(-c2ccccc2)nc2cnc(Nc3ccccc3)nc21`, inactive: 10.7%.

For `O=C(C[n+]1cccc(Br)c1)c1ccc(-c2ccccc2)cc1`, the activation was inactive: -9.15%. Regarding `COc1ccc(C(=O)c2ccccc2)c(O)c1`, the activation is inactive: -26.9% and inactive: -24.2%. As to `NCCCCCCNS(=O)(=O)c1cccc2ccccc12`, the activation is inactive: -2.55%. To `C#CCCCCCCCCCCCC(O)CC(O)COC(C)=O` (stereo unspecified) belongs inactive: -27.6%.

On to `O=C(Oc1ccccc1)c1ccccc1O`, for which the activation was inactive: -13.3%. `O=c1c(-c2ccc(Cl)cc2)nc2cnc(N3CCNCC3)nc2n1Cc1ccc(F)cc1`: the activation is inactive: 6.27%. With `COc1ncnc(NS(=O)(=O)c2ccc(N)cc2)c1OC` the figure was inactive: 6.44%; with `CC(=O)OCC(=O)[C@@]1(O)[C@H](C)C[C@H]2[C@@H]3CCC4=CC(=O)C=C[C@]4(C)[C@@]3(F)[C@@H](O)C[C@@]21C`, inactive: -1.06%. To `Cc1cc(C(=O)Nc2cccc(-c3nc(CNC(=O)c4ccc[n+]([O-])c4)c(C)o3)c2)c(C)o1` belongs inactive: -3.79%; to `O=C(c1ccc2c(c1)OCO2)N1CCCCC1`, inactive: -20%. With `O=C(C[N+]12CN3CN(CN(C3)C1)C2)c1ccc(Br)cc1` the figure was inactive: -17.2%; with `CC(=O)O[C@H]1C(=O)[C@@]2(C)C([C@H](OC(=O)c3ccccc3)[C@]3(O)C[C@H](OC(=O)[C@H](O)[C@@H](NC(=O)c4ccccc4)c4ccccc4)C(C)=C1C3(C)C)[C@]1(OC(C)=O)CO[C@@H]1C[C@@H]2O` (stereo partly specified), inactive: -15.8% and inactive: -4.54%. For `CN(C)c1ccc(/C=c2\[nH]c(=O)/c(=C/c3ccc(N(C)C)cc3)[nH]c2=O)cc1`, the activation was inactive: -10.5%. Take `COc1ccc(C(=O)CC(=O)c2ccc(C(C)(C)C)cc2)cc1`: the activation was inactive: 1.24%. With `N#CCCn1c(=O)c(CCc2ccccc2)nc2cnc(OCc3ccccc3)nc21` the figure was inactive: -4.19%.

`COc1cc(CN2CCC3(CCC(CNC(=O)c4ccco4)O3)CC2)ccc1O` (stereo unspecified): the activation was inactive: -27.4%.

On to `COc1ccc2[nH]cc(CCNc3ncncc3-c3c(C)noc3C)c2c1`, for which the activation was inactive: -11.7%. As for `OC(c1cc(C(F)(F)F)nc2c(C(F)(F)F)cccc12)C1CCCCN1` (stereo unspecified), the activation is inactive: -11.8%. With `COc1cc(=O)n2c(c1C(=O)NCc1nonc1C)CCN(Cc1c[nH]c3ccccc13)CC2` the figure was inactive: 4.81%; with `Fc1ccc(Nc2ncncc2-c2ccccc2C(F)(F)F)cc1`, inactive: -17.7%.

In the case of `Cc1ccccc1-c1cc2c(c(OC3CCOC3)c1)OCCN(C(=O)Cn1cccn1)C2` (stereo unspecified), the activation was inactive: -13.4%. With `O=C(c1cccc(F)c1)N1CCC[C@@]2(CCN(c3ncccn3)C2)C1` the figure was inactive: -1.21%; with `COC(=O)CC1C(C)(C)C2(O)OC34CC2C(=O)[C@@]1(C)C3CC[C@]1(C)C4=CC(=O)OC1c1ccoc1` (stereo partly specified), inactive: -10.6%; with `COc1ccc2c(c1)c(CC(=O)N1CCOCC1)c(C)n2C(=O)c1ccc(Cl)cc1`, inactive: -8.32% and inactive: 7.39%. Take `CC(=O)N[C@@H](C(=O)O)C(C)(C)SN=O`: the activation is inactive: -0.706%. To `O=c1c(-c2ccccc2)nc2cnc(Oc3ccccc3)nc2n1C[C@H]1CCCO1` belongs inactive: -7.62%. For `Cc1nc2cc(NC(=O)[C@@H]3C[C@@H](Sc4ccccn4)CN3Cc3cccc(F)c3)ccc2s1`, the activation was inactive: 1.16%.

Consider `COc1ccccc1-c1ccc2ncnc(NC3CCNCC3)c2c1`, for which the activation is inactive: -0.645%. Take `Cc1coc2c1C(=O)C(=O)c1c-2ccc2c1CCCC2(C)C`: the activation is inactive: -31.7% and inactive: 4.8% and inactive: -46.7%. On to `COc1ccc(CN2Cc3ccccc3OC(c3ccccc3OC)C2)cc1O` (stereo unspecified), for which the activation is inactive: -19.3%. `OC1(c2cccnc2)CCN(Cc2ccc3c(c2)CN(Cc2cccc(F)c2F)CCO3)CC1`: the activation is inactive: 1.51%.

With `O=C(c1cccc(F)c1)N1CCC2(CC1)CCN(c1ccncc1)CC2`, the activation is inactive: -6.65%. With `NCCNc1cccc2ccccc12` the figure was inactive: 0.141%; with `CNCCCC12CCC(c3ccccc31)c1ccccc12`, inactive: 1.94% [middle of 4 runs]; with `C/C=C/c1ccc(OC(C)[C@@H](O)c2ccc(O)c(OC)c2)c(OC)c1` (stereo partly specified), inactive: -20.9%. To `Cc1cccc(CNc2ncncc2-c2cccc(NS(C)(=O)=O)c2)c1` belongs inactive: 0.0124%; to `CC[C@H]1OC(=O)C[C@@H](O)[C@H](C)[C@@H](O[C@@H]2O[C@H](C)[C@@H](O)[C@H](N(C)C)[C@H]2O)[C@@H](CCN2C[C@H](C)C[C@H](C)C2)C[C@@H](C)C(=O)/C=C/C(C)=C/[C@@H]1CO[C@@H]1O[C@H](C)[C@@H](O)[C@@H](OC)[C@H]1OC`, inactive: -11.6%.

For the compound `Cc1ccccc1CN1CCc2nnc(C(C)NC(=O)c3cc(F)ccc3F)n2CC1` (stereo unspecified), the activation is inactive: 3.19%. With `O=C1Cc2c([nH]c3ccc(Br)cc23)-c2ccccc2N1` the figure was inactive: -14.2% and inactive: -4.14%; with `O=C(/C=C/c1ccccc1)c1cccs1`, inactive: 1.65%; with `Cn1ncc(S(=O)(=O)Cc2ccccc2)c(Br)c1=O`, inactive: -30.5%. With `COC(=O)/C=C/c1ccccc1S(=O)(=O)NC(C)C` the figure was inactive: -14.4%; with `CC(C)(C)[C@@H]1CCC(=O)N(CC[C@H](Sc2ccccc2)c2ccccc2)CC1`, inactive: -14.2%.

With `CCCCCCC(=O)OC1CC(C)(C)NC(C)(C)C1`, the activation is inactive: 3.42%. To `O=C1c2ccccc2CC[C@H]1CNCCc1ccc(O)cc1` belongs inactive: -10.2%; to `O=C(/C=C/c1ccc2c(c1)OCO2)c1cccs1`, inactive: 10.5%; to `Oc1cc2c(cc1O)CN(C(=S)NCCc1ccc(Cl)cc1)CCC2`, inactive: -7.66% and inactive: -21.6%.

As to `COCCn1c(=O)cnc2cnc(Oc3ccccc3)nc21`, the activation was inactive: -6.96%. With `CCCCCC(=O)O[C@]1(C(C)=O)CC[C@H]2[C@@H]3CCC4=CC(=O)CC[C@]4(C)[C@H]3CC[C@@]21C` the figure was inactive: -22.8%. To `Cc1oc(-c2ccccc2NC(=O)c2ccccc2)nc1CNC(=O)c1cccc(-n2cccn2)c1` belongs inactive: -0.575%.

Take `Cc1c(C)c2c(c(C)c1OC(=O)CCC(=O)O)CC[C@@](C)(CCC[C@H](C)CCC[C@H](C)CCCC(C)C)O2`: the activation was inactive: -43.1%.

`c1cncc(-c2nc(N3CCNCC3)c3ccccc3n2)c1`: the activation was inactive: -27%.

On to `CC1(C)C[C@@H]1C(=O)N/C(=C\CCCCSC[C@H](N)C(=O)O)C(=O)O`, for which the activation was inactive: 1.68% and inactive: -1.7%. To `Cc1cc(Cn2cnc3c2C[C@@H](C(=O)O)N(C(=O)C(c2ccccc2)c2ccccc2)C3)ccc1N` belongs inactive: -35.2%; to `COc1ccc(C(=O)N2CCC3(CCCN(Cc4ccc(C#N)cc4)C3)CC2)cc1`, inactive: -2.1%. To `COc1ccc(C(=O)N2CCC3(CC2)CCN(c2ccccc2)CC3)cc1` belongs inactive: -14.3%. With `C[C@@H]1C[C@H]2[C@@H]3C[C@H](F)C4=CC(=O)C=C[C@]4(C)[C@@]3(Cl)[C@@H](O)C[C@]2(C)[C@H]1C(=O)COC(=O)C(C)(C)C` the figure was inactive: 1.38%; with `CN(C)c1ncc2ncc(=O)n(C3CC3)c2n1`, inactive: 8.08%. As for `CCNc1ncc2nc(-c3cccs3)c(=O)n(C)c2n1`, the activation was inactive: -1.45%. To `CN1CCN(c2cc(-c3ccoc3)ncn2)CC1` belongs inactive: -3.48%; to `NC[C@@H](O)c1ccc(O)c(O)c1`, inactive: -21.5%; to `Cc1ccc(C(=O)Nc2cnn(-c3ccc(C(=O)NCc4nc(-c5ccccc5)n[nH]4)cc3)c2)c(C)c1`, inactive: -11.2%.

The record behind these values is PubChem BioAssay AID1645887 (National Center for Advancing Translational Sciences (NCATS), 2021).
